From the RNAGym collection of RNA variant scans (doi:10.1093/nar/gkz1192)
Read counts are not given, so values of variants with three or more changes are uncertain.

B1: CPEB3 Ribozyme (parent)
chain: UAACAGGGGGCCACAGCAGAAGCGUUCACGUCGCAGCCCCUGUCAGAUUCUGGUGAAUCUGCGAAUUCUGCUGUAUAUCUC

Variants of: B1
Assay: self-cleavage, relative activity (ratio to wild type); higher = more cleavage; in vitro, sequencing
Method in brief: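 Barcoded CPEB3 ribozyme mutants, produced by rounds of error-prone PCR, self-cleaved while being transcribed with T7 RNA polymerase for 5 hours at 37°C and during a subsequent 15 min DNase I step before EDTA was added. Sequencing of template-switched cDNA on Illumina gave cleaved and total reads, and DNA sequencing assigned barcodes to variants. Each variant's relative activity is its cleaved/total read fraction divided by the unmutated ribozyme's fraction, averaged across three batches. A variant needed a minimum of 5 reads.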

Variant | self-cleavage
C4G A5U A20G G24A A35G A77G | 0.1
C4G A5U U26C U60C U80C | 0.47
C4G A13G A18G U58C U80C | 0.08
C4G A13G A45G | 0.3
C4G A13G A45U U67A | 0.22
C4G A13G U25C A45G | 0.1
C4G A13G U49C U80G | 0.35
C4G A13U A28G | 1.1
C4G A13U G16U A28G | 0.28
C4G A13U U31C U78C | 1.04
C4G A15U U74A | 1.21
C4G A18G A56G | 0.73
C4G A18G C59U U60G U80C | 0.31
C4G A18G G30A U72A | 0.06
C4G A18G U26C U80C | 0.79
C4G A18G U60A U69C | 1.02
C4G A20G U49A | 0.57
C4G A20G U51C | 0.86
C4G A20U A21G G52U | 0.22
C4G A20U A65G | 0.26
C4G A21G A28G | 0.41
C4G A21G A28G A56U U72G C81A | 0.3
C4G A21G C29A | 0.53
C4G A21G U25C U26C | 0.06

Variant | self-cleavage
C4G A21G U31C A75G U78A | 0.44
C4G A21G U31G U41A U51A U60A U67C | 0.07
C4G A21U A35G C40A U54C A65U G70A | 0.07
C4G A35G U54C C68U | 1.19
C4G A35U U60A U80A | 0.62
C4G C11G U31C U69A U76A | 0.1
C4G C11U U41A U49A U78C | 0.06
C4G C12U C44A A45U U54A U74A | 0.84
C4G C17G A21G U41C U60C | 0.08
C4G C17G A28U C59A U67C | 0.06
C4G C17G A45G C59A U72C | 0.04
C4G C23G A28G | 0.25
C4G C23U U31C | 0.35
C4G C29U A35U C38U U66C U67A | 0.24
C4G C29U U80C | 0.71
C4G C40U A64G U80A | 0.67
C4G C40U U43C A45U A47U | 0.37
C4G G6A U51C | 0.54
C4G G8C U67C | 0.04
C4G G9C U25C U43C U67A | 0.06
C4G G9U A18U U41A A75U U76A | 0.07
C4G G10A C12U A15G U72C A75U | 1.13
C4G G10A C12U A35U | 0.08
C4G G16A A18G U43C A57G | 0.26

Variant | self-cleavage
C4G G19A U60A C62G U67A | 0.12
C4G U31C U41C U51C G73A | 1.19
C4G U69A U80C | 0.89
C4U A5G A18G A45G U58G U60A U66A | 0.08
C4U A5G A18G A45G U58G U66A U72C | 0.16
C4U A5G A20G C37A A56G | 0.08
C4U A5G C11A A64U U69C U74A | 0.22
C4U A5G G6A | 0.56
C4U A5G G6A A13U U60A A64G | 0.51
C4U A5G U41C U51C C68A | 0.45
C4U A5G U43C | 0.55
C4U A5G U66C | 0.42
C4U A5G U69C | 0.46
C4U A13C U69A | 0.78
C4U A13G A20U A21G | 0.36
C4U A13G A28G A35U | 0.28
C4U A13G A45U U60C U69C | 0.25
C4U A13G U25C U58A | 0.21
C4U A13G U31A G36A A47U | 0.24
C4U A13G U41C A65G U66C | 0.28
C4U A13G U69A | 0.82
C4U A13U A15G A28U U51A U69A U78A | 0.56
C4U A13U A15G G16A U26C | 0.08
C4U A13U A20U U43C C44G A57G | 0.12

Variant | self-cleavage
C4U A13U A21G G36A | 0.25
C4U A13U A21G U69C A75G U76A | 0.18
C4U A13U A35G C39A U69A U72C U80A | 0.12
C4U A13U A45G U54C | 1.23
C4U A13U C29G C40U A45G U60C U80A | 0.17
C4U A15C U43C U72C U76C | 0.98
C4U A15G A18U A28G U54C | 0.15
C4U A15G A35G U78A | 1.1
C4U A15G A57U U78C | 0.5
C4U A15G G16A | 0.41
C4U A15G U26C | 0.89
C4U A15U C29U U69A | 0.17
C4U A15U U67C | 0.41
C4U A15U U78C | 1.23
C4U A18C A20C U41G U43C A64U | 0.05
C4U A18C A21G C29A U80A | 0.6
C4U A18G A20G U25C A56U U69C U74A | 0.15
C4U A18G G63A U80C | 0.82
C4U A18U A21G A56U U66C | 0.17
C4U A18U A56G | 0.79
C4U A18U G36A U80C | 0.62
C4U A18U G70C | 0.3
C4U A20G A35G A45G A56G G61U | 0.5
C4U A20G A35G G46C U60C | 0.15

Variant | self-cleavage
C4U A20G A45U A56U | 0.26
C4U A20G A56G U80A | 1.09
C4U A20G U25A A35G U78C | 0.17
C4U A20U A35G A45U U78C | 0.36
C4U A20U U41C | 0.51
C4U A20U U51A U74A | 0.94
C4U A21C A57G | 0.41
C4U A21C U25G U54C U58A | 0.18
C4U A21G A28G G36C U43C U72C | 0.09
C4U A21G A28U A35G U43A U72C U80C | 1.18
C4U A21G A47G A57G U72C | 0.48
C4U A21G U43A U72G | 0.5
C4U A21G U51C | 1.03
C4U A21G U60C | 0.24
C4U A21G U80A | 1.18
C4U A21U C38G U49C | 0.19
C4U A21U U25C | 0.12
C4U A21U U25C A45U U48C G73U | 0.08
C4U A28C G30C U41A | 0.34
C4U A28G A47G | 0.78
C4U A28G A77G U80C | 0.8
C4U A28G U51C G52U C62U | 0.25
C4U A28U A35G G42A U49C U67C U80C | 0.08
C4U A28U U41C A56G C71U U78C | 0.5

Variant | self-cleavage
C4U A28U U60A U67C | 0.34
C4U A28U U67C U69C U78C | 0.22
C4U A35G A56G U80A | 1.32
C4U A35U U43C A56G | 0.16
C4U A45U A65G U69C A75G | 0.23
C4U A45U U51A U60A | 1.18
C4U A56G U72C | 0.93
C4U A57G C81U | 1.21
C4U A57G G63U U72A | 1.23
C4U A57G U60C A75G | 0.46
C4U A57G U72C | 1.07
C4U A57G U74A | 1.17
C4U A57U U74C U76A | 1.12
C4U C11G A15G U49C | 0.12
C4U C11G A18G U41A U48A | 0.08
C4U C11G C27U A45G | 0.3
C4U C11G U26C A45U A77G | 0.05
C4U C11G U26C A47G U51C U76C | 0.23
C4U C11U G19U G30A U41C A65U C79A | 0.04
C4U C11U U67C | 0.1
C4U C12A A18G U41A U67A | 0.3
C4U C12A C40U U72C | 1.22
C4U C17U U67C | 0.36
C4U C23G U54C U67A U74C | 0.24

Variant | self-cleavage
C4U C23U A35U G55A U66C | 0.12
C4U C29A U31C U51A U69A | 0.21
C4U C32A G61A U80C | 0.23
C4U C38U U66C U74C | 0.27
C4U C62A U72C | 0.16
C4U G6A A13G C14U U72C | 0.28
C4U G6A A21U A47G U76A | 0.16
C4U G6A U74C | 0.41
C4U G6C G8A U26C A47G | 0.09
C4U G6C U49C A56G U72G A77G | 0.19
C4U G7A A65G | 0.08
C4U G7A C62U | 0.33
C4U G8A U41C U66C G70U A77G U78C | 0.05
C4U G8C A45G U67G A75U U78C | 0.19
C4U G9A A15G | 0.47
C4U G9A A20U A56U U69C | 0.07
C4U G9A G52U A57G A75G | 0.14
C4U G9A U41C | 0.56
C4U G9U A15G C29U | 0.08
C4U G9U A20G U54A | 0.15
C4U G9U A21C A65U U72A | 0.37
C4U G10A A18G U41G U67C U69A A75G | 0.04
C4U G10U C34A U43C U60A U72A | 0.09
